Experiment [1] deals with SOX7DIM/SOX18 swap construct (human) (UniProt Q9BT81). Kind of experiment: AlphaScreen or HTRF; LTE lysate co-expressing a GFP-tagged and a Cherry-cMyc-tagged protein, diluted in 25 mM HEPES, 50 mM NaCl; anti-cMyc acceptor beads, biotin-labelled GFP-Nanotrap and streptavidin donor beads; room temperature; no enrichment or purification.
For experiment [2] the target is unchanged. Kind of experiment: single-molecule two-colour coincidence fluorescence spectroscopy; GFP- and Cherry-tagged proteins made in LTE, diluted to about 100 pM, confocal detection with 488 and 561 nm lasers, room temperature; coincidence ratio C = mCherry/(GFP + mCherry).
Experiment [3] has as its target SOX9 (UniProt P48436). The experiment can be described thus: AlphaScreen or HTRF; LTE lysate co-expressing a GFP-tagged and a Cherry-cMyc-tagged protein, diluted in 25 mM HEPES, 50 mM NaCl; anti-cMyc acceptor beads, biotin-labelled GFP-Nanotrap and streptavidin donor beads; room temperature; no enrichment or purification. On the technique in general: In Alpha technology, singlet oxygen from a donor bead excites a nearby acceptor bead.

Amino acid sequences for entries named in this document (tags omitted). A change or cut given only in a name is not applied to a line headed by its entry. Chains listed by the source or under a name are the forms on record and can include a tag or linker.
UniProt Q9BT81: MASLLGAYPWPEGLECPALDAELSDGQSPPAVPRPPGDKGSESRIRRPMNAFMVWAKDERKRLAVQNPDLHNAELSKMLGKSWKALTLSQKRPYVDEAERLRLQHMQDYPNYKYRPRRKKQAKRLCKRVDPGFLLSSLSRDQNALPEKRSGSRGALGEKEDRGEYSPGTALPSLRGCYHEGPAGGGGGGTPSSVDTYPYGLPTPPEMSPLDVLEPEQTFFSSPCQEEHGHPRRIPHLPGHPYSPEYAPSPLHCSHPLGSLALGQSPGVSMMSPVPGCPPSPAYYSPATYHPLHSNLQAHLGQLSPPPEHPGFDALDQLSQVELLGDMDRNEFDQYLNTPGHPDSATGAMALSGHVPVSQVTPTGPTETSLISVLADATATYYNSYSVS
SOX7DIM/SOX18 swap construct (Q9BT81, form named): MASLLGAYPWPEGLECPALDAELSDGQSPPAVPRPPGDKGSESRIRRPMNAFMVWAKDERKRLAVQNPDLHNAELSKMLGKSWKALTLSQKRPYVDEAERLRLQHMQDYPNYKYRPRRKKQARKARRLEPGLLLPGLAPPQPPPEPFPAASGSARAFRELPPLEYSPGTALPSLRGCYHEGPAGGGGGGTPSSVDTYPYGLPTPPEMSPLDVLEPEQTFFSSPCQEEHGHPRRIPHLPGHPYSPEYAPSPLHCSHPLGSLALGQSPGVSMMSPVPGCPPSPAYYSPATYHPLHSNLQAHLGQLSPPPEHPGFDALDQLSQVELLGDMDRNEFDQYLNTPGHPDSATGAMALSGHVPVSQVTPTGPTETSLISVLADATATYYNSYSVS
UniProt P48436: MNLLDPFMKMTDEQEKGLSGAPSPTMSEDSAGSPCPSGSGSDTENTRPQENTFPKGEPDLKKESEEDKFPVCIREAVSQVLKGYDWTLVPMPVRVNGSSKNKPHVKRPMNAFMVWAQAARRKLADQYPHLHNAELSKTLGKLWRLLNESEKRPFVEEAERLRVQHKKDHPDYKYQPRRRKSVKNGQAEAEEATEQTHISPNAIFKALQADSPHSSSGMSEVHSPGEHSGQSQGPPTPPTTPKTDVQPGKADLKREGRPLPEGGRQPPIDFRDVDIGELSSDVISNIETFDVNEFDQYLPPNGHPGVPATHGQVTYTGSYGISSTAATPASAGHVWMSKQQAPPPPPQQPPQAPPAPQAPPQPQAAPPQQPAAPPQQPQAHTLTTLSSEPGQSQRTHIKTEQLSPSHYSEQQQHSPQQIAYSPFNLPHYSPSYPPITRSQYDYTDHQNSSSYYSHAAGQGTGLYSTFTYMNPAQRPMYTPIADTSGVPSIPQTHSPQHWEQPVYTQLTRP
UniProt P35713: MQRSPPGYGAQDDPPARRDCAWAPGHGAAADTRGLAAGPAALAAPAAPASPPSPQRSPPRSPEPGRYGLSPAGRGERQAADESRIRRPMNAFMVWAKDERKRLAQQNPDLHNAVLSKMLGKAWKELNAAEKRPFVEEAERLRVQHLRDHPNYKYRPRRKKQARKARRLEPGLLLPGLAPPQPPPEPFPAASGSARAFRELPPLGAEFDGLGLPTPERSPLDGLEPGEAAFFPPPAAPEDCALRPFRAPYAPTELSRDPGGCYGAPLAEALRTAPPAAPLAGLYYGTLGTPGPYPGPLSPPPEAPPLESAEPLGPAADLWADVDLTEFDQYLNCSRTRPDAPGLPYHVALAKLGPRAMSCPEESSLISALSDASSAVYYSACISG
SOX18 deletion mutant lacking the first hydrophobic motif (Δ161–168) (P35713, form named): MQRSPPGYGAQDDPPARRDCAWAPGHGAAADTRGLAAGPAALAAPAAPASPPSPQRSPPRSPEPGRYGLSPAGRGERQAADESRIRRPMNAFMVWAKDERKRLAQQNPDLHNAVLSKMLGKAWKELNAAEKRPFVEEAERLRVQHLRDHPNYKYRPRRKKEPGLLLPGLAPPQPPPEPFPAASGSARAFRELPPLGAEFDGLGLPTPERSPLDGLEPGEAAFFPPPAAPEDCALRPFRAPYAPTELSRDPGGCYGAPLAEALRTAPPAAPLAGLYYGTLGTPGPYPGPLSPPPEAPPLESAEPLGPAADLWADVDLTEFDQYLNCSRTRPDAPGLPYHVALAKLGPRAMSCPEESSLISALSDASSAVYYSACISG
SOX18 deletion mutant that lacks the FRELPPL motif (Δ197–203) (P35713, form named): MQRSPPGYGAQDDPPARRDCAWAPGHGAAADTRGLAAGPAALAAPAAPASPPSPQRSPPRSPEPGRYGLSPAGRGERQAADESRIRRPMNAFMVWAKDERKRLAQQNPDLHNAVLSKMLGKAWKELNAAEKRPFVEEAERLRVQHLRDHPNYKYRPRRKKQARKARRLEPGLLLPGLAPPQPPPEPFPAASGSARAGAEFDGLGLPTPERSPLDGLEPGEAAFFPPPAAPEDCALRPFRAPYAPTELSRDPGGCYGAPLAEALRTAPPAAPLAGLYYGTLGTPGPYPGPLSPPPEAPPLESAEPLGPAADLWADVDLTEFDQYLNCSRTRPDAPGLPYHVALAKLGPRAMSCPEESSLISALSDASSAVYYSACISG
SOX18DIM/SOX7 swap construct (P35713, form named): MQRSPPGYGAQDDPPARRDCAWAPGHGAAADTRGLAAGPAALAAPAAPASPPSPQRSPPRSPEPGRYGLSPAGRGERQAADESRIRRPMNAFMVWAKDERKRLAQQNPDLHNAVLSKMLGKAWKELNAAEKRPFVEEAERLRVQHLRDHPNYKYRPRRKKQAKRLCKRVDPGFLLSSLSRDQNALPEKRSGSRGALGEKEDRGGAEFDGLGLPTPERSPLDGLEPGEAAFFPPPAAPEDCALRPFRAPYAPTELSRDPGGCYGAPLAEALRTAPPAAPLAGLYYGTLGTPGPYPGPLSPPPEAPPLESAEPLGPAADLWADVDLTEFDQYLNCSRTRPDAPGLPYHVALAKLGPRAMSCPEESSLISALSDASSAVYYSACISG
UniProt Q9H6I2: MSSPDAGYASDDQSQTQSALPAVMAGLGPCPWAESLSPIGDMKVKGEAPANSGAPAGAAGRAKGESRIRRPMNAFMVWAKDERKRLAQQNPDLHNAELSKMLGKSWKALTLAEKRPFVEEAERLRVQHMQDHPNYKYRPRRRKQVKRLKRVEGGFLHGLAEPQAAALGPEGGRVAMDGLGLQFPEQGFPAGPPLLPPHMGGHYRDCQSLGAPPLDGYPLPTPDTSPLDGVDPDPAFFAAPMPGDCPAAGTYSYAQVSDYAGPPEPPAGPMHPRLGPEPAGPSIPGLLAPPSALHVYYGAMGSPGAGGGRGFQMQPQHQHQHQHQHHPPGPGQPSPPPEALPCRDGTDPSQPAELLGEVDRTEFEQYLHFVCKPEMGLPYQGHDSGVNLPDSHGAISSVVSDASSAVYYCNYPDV
UniProt Q06413: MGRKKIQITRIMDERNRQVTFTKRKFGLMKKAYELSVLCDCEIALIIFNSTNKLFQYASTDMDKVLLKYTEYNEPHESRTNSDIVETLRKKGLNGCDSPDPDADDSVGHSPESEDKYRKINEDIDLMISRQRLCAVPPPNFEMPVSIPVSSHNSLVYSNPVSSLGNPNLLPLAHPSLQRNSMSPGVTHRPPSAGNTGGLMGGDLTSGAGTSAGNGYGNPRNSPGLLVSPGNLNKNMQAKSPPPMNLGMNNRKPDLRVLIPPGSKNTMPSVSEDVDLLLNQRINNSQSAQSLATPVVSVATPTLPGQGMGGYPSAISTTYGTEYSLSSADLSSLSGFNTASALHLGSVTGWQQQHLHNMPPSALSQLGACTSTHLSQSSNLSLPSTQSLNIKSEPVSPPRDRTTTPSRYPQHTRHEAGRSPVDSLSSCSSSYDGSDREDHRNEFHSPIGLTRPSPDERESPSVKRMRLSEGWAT
UniProt P23769: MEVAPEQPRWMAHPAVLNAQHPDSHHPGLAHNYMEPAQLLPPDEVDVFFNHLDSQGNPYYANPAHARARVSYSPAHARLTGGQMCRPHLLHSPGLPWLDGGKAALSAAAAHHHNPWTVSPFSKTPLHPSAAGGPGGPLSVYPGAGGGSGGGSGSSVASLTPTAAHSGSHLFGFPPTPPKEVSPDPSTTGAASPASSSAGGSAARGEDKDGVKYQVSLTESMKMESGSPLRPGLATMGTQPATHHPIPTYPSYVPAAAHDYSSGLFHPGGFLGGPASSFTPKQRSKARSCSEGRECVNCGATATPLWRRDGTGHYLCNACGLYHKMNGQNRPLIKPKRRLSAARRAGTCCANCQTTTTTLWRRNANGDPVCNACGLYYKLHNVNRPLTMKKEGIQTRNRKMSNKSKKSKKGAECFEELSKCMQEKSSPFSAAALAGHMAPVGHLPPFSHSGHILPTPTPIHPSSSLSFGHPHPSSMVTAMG
UniProt Q06330: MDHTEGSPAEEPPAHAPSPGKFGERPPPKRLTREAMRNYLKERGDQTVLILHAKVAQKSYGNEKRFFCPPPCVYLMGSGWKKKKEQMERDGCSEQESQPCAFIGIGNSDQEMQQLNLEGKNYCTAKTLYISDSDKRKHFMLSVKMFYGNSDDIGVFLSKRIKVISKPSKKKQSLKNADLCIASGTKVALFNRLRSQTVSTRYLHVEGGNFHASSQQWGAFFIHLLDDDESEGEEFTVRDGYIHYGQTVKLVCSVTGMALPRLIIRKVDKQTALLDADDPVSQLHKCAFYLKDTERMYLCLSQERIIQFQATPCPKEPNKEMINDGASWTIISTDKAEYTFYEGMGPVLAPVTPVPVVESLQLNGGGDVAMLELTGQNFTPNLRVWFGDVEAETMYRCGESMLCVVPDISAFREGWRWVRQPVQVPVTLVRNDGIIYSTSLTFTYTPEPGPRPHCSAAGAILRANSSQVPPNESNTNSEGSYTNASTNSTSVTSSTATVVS

Experiment [4] concerns the target full-length human SOX18 (human) (UniProt P35713). The experiment is described as above.
The target in experiment [5] is SOX18 homodimer BiFC reporter (NmVENUS155-SOX18S and CmVENUS155-SOX18S) (UniProt P35713). The experiment can be described thus: split reporter; mVENUS split at amino acid 155; mRNAs of the two halves co-injected into single-cell zebrafish embryos, live confocal imaging at 4-5 hpf.
Experiment [6] deals with SOX18DIM/SOX7 swap construct (human) (UniProt P35713). The experiment can be described thus: AlphaScreen or HTRF; LTE lysate co-expressing a GFP-tagged and a Cherry-cMyc-tagged protein, diluted in 25 mM HEPES, 50 mM NaCl; anti-cMyc acceptor beads, biotin-labelled GFP-Nanotrap and streptavidin donor beads; room temperature; no enrichment or purification.
For experiment [7] the target is unchanged. The experiment can be described thus: single-molecule two-colour coincidence fluorescence spectroscopy; GFP- and Cherry-tagged proteins made in LTE, diluted to about 100 pM, confocal detection with 488 and 561 nm lasers, room temperature; coincidence ratio C = mCherry/(GFP + mCherry).
The target in experiment [8] is full-length SOX7 (human) (UniProt Q9BT81). The experiment can be described thus: AlphaScreen or HTRF; LTE lysate co-expressing a GFP-tagged and a Cherry-cMyc-tagged protein, diluted in 25 mM HEPES, 50 mM NaCl; anti-cMyc acceptor beads, biotin-labelled GFP-Nanotrap and streptavidin donor beads; room temperature; no enrichment or purification.
The target is the same in experiment [9]. Kind of experiment: single-molecule two-colour coincidence fluorescence spectroscopy; GFP- and Cherry-tagged proteins made in LTE, diluted to about 100 pM, confocal detection with 488 and 561 nm lasers, room temperature; coincidence ratio C = mCherry/(GFP + mCherry).
Experiment [10] addresses full-length SOX17 (human) (UniProt Q9H6I2). Kind of experiment: AlphaScreen or HTRF; LTE lysate co-expressing a GFP-tagged and a Cherry-cMyc-tagged protein, diluted in 25 mM HEPES, 50 mM NaCl; anti-cMyc acceptor beads, biotin-labelled GFP-Nanotrap and streptavidin donor beads; room temperature; no enrichment or purification.
Experiment [11] has the same target. The experiment can be described thus: single-molecule two-colour coincidence fluorescence spectroscopy; GFP- and Cherry-tagged proteins made in LTE, diluted to about 100 pM, confocal detection with 488 and 561 nm lasers, room temperature; coincidence ratio C = mCherry/(GFP + mCherry).
The target in experiment [12] is full-length human SOX18 (human) (UniProt P35713). Kind of experiment: condition: only with >5 μM DNA harbouring a single consensus SOX binding motif; AlphaScreen or HTRF; as the AlphaScreen of LTE lysates, with rising concentrations of DNA harbouring a single consensus SOX binding motif.
The target in experiment [13] is human MEF2C (human) (UniProt Q06413). Kind of experiment: AlphaScreen or HTRF; LTE lysate co-expressing a GFP-tagged and a Cherry-cMyc-tagged protein, diluted in 25 mM HEPES, 50 mM NaCl; anti-cMyc acceptor beads, biotin-labelled GFP-Nanotrap and streptavidin donor beads; room temperature; no enrichment or purification.
Experiment [14] has as its target human GATA2 (human) (UniProt P23769). The experiment is described as above.
Experiment [15] addresses human RBPJ (human) (UniProt Q06330). The experiment is described as above.

This is an account of results in publication PMC6265484, “Homodimerization regulates an endothelial specific signature of the SOX18 transcription factor” (Nucleic Acids Research, 2018).

No constants are given. Whether binding was seen depends on the method and setting. For some assays here: In cells and extracts the contact can be indirect. Some entries that bind do so weakly or less than the wild type.

Take “SOX7DIM/SOX18 swap construct (from UniProt Q9BT81 1-113; Q9BT81 164-388)”: the binding result in [1] and in [2] was “binds” in each case.
Regarding SOX9 (from UniProt P48436 1-509), the binding result in experiment [3] is “binds”.
As for “SOX18 deletion mutant lacking the first hydrophobic motif (Δ161–168) (from UniProt P35713 1-384)”, in [4], the binding result is “binds”.
In the case of “SOX18 deletion mutant that lacks the FRELPPL motif (Δ197–203) (from UniProt P35713 1-384)”, the binding entry in experiment [4] was “no binding”.
With “SOX18 homodimer BiFC reporter (NmVENUS155-SOX18S and CmVENUS155-SOX18S) (from UniProt P35713 1-384)”, the binding result in experiment [5] is “binds”.
In the case of “SOX18DIM/SOX7 swap construct (from UniProt P35713 1-153; P35713 204-384)”, the binding result in experiment [6] and in experiment [7] was “no binding” throughout.
As to “full-length SOX7 (from UniProt Q9BT81 1-388)”, the binding result in [8] and in experiment [9] was “no binding” each time.
Take “full-length SOX17 (from UniProt Q9H6I2 1-414)”: the binding entry in [10] and in [11] was “no binding” in each case.
With “full-length human SOX18 (from UniProt P35713 1-384)”, the binding result is recorded as “no binding” in [12]; “binds” in [13]; “no binding” in experiment [14]; “binds” in [4]; “binds” in experiment [15].
